Reference: patent US8129380B2, “Phthalazinone derivatives” (AstraZeneca AB, priority 2008, dated 2012)

Target: Mammalian PARP, isolated from Hela cell nuclear extract (Homo sapiens, UniProt P09874)
Experiment: PARP inhibitory action (FlashPlate 3H-NAD assay)
Assay type: biochemical
Details: 30° C., NAD 5 μM
Experimental: In order to assess the inhibitory action of the compounds, the following assay was used to determine IC50 values.
The total assay volume per well was 40 μl.
After 10 minutes incubation at 30° C. the reactions were initiated by the addition of a 10 μl reaction mixture, containing NAD (5 μM), ^3H-NAD and 30 mer double stranded DNA-oligos. Designated positive and negative reaction wells were done in combination with compound wells (unknowns) in order to calculate % enzyme activities. The plates were then shaken for 2 minutes and incubated at 30° C. for 45 minutes.
Following the incubation, the reactions were quenched by the addition of 50 μl 30% acetic acid to each well. The plates were then shaken for 1 hour at room temperature.
The plates were transferred to a TopCount NXT (TRADE MARK) (Packard, UK) for scintillation counting. Values recorded are counts per minute (cpm) following a 30 second counting of each well.
The % enzyme activity for each compound is then calculated using the following equation: […]
IC50 values (the concentration at which 50% of the enzyme activity is inhibited) were calculated, which are determined over a range of different concentrations, normally from 10 μM down to 0.001 μM. Such IC50 values are used as comparative values to identify increased compound potencies.

Chain of UniProt P09874 (P09874 whole entry): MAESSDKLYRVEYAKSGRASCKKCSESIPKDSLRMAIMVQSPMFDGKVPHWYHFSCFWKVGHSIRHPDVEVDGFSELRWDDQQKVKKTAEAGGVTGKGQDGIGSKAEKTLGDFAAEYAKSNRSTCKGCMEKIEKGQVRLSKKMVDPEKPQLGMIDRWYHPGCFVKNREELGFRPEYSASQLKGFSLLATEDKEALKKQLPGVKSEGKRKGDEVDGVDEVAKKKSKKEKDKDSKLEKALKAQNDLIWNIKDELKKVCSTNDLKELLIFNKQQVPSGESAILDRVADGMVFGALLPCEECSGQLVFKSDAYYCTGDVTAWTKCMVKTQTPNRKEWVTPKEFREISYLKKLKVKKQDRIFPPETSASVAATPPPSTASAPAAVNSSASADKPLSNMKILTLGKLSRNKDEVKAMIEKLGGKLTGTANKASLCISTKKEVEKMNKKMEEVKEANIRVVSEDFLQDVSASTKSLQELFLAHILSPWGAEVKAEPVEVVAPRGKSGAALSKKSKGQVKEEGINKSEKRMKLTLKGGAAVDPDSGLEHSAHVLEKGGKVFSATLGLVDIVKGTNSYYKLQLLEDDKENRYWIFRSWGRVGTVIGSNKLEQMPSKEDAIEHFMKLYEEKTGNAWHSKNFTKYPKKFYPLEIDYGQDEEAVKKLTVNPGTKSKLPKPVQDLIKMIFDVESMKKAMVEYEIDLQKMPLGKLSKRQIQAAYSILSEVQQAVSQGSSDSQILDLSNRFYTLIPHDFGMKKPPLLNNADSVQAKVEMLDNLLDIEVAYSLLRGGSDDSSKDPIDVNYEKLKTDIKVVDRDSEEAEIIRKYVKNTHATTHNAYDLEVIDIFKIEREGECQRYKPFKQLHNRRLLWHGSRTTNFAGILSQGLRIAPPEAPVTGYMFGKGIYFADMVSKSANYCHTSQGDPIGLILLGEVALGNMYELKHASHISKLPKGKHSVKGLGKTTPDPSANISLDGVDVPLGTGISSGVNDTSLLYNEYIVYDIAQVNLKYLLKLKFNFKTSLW

| IC50 [nM] | SMILES |
| --- | --- |
| 22 | O=C(c1cc(Cc2n[nH]c(=O)c3ccccc23)ccc1F)N1CCC(OCCN2CCCC2)CC1 [Compound 110, 4-(4-fluoro-3-(4-(2-(pyrrolidin-1-yl)ethoxy)piperidine-1-carbonyl)benzyl)phthalazin-1(2H)-one] |
| 5 | O=C(c1cc(Cc2n[nH]c(=O)c3ccccc23)ccc1F)N1CCC(OCc2ccccc2)CC1 [Compound 8e, 4-[[4-fluoro-3-(4-phenylmethoxypiperidine-1-carbonyl)phenyl]methyl]-2H-phthalazin-1-one] |
| 3 | CCOC1CCN(C(=O)c2cc(Cc3n[nH]c(=O)c4ccccc34)ccc2F)CC1 [Compound 2f, 4-(3-(4-ethoxypiperidine-1-carbonyl)-4-fluorobenzyl)phthalazin-1(2H)-one] |
| 5 | O=C(c1cc(Cc2n[nH]c(=O)c3ccccc23)ccc1F)N1CCC(Oc2ccncc2)CC1 [Compound 2j] |
| 5 | O=C(c1cc(Cc2n[nH]c(=O)c3ccccc23)ccc1F)N1CCC(OCC2CCCO2)CC1 (centres unmarked) [Compound 20, 4-[[4-fluoro-3-[4-(oxolan-2-ylmethoxy)piperidine-1-carbonyl]phenyl]methyl]-2H-phthalazin-1-one] |
| 7 | CCOC1CCN(C(=O)c2cc(Cc3n[nH]c(=O)c4cccc(Cl)c34)ccc2F)CC1 [Compound 104b, 5-chloro-4-(3-(4-ethoxypiperidine-1-carbonyl)-4-fluorobenzyl)phthalazin-1(2H)-one] |
| 9 | O=C(COC1CCN(C(=O)c2cc(Cc3n[nH]c(=O)c4ccccc34)ccc2F)CC1)N1CCCC1 [Compound 107, 4-(4-fluoro-3-(4-(2-oxo-2-(pyrrolidin-1-yl)ethoxy)piperidine-1-carbonyl)benzyl)phthalazin-1(2H)-one] |
| 4 | O=C(c1cc(Cc2n[nH]c(=O)c3ccccc23)ccc1F)N1CCC(Oc2ccccn2)CC1 [Compound 2i] |
| 1030 | Cc1ccnc(OC2CCN(C(=O)c3cc(Cc4n[nH]c(=O)c5ccccc45)ccc3F)CC2)c1 [Compound 72d] |
| 4 | CC(C)OC1CCN(C(=O)c2cc(Cc3n[nH]c(=O)c4ccccc34)ccc2F)CC1 [Compound 11, 4-(4-fluoro-3-(4-isopropoxypiperidine-1-carbonyl)benzyl)phthalazin-1(2H)-one] |
| 4 | O=C(c1cc(Cc2n[nH]c(=O)c3ccccc23)ccc1F)N1CCC(OCC2CC2)CC1 [Compound 2g] |
| 10 | Cc1ccc(OC2CCN(C(=O)c3cc(Cc4n[nH]c(=O)c5ccccc45)ccc3F)CC2)nn1 [Compound 26b] |
| 2 | COc1ccc(OC2CCN(C(=O)c3cc(Cc4n[nH]c(=O)c5ccccc45)ccc3F)CC2)cc1 [Compound 8b, 4-[[4-fluoro-3-[4-(4-methoxyphenoxy)piperidine-1-carbonyl]phenyl]methyl]-2H-phthalazin-1-one] |

The remaining lines, values behind:

| SMILES | IC50 [nM] |
| --- | --- |
| COC1CCN(C(=O)c2cc(Cc3n[nH]c(=O)c4cccc(Cl)c34)ccc2F)CC1 [Compound 104a, 5-chloro-4-(4-fluoro-3-(4-methoxypiperidine-1-carbonyl)benzyl)phthalazin-1(2H)-one] | 9 |
| COC1CCN(C(=O)c2cccc(Cc3n[nH]c(=O)c4c(C)[nH]c(C)c34)c2)CC1 [Compound 52a, 4-(3-(4-methoxypiperidine-1-carbonyl)benzyl)-5,7-dimethyl-2,6-dihydro-1H-pyrrolo[3,4-d]pyridazin-1-one] | 152 |
| COC1CCN(C(=O)c2cc(Cc3n[nH]c(=O)c4c(C)[nH]c(C)c34)ccc2F)CC1 [Compound 58, 4-(4-fluoro-3-(4-methoxypiperidine-1-carbonyl)benzyl)-5,7-dimethyl-2,6-dihydro-1H-pyrrolo[3,4-d]pyridazin-1-one] | 19 |
| COC1CCN(C(=O)c2cc(Cc3n[nH]c(=O)c4ccc(N)cc34)ccc2F)CC1 [Compound 99, 6-amino-4-(4-fluoro-3-(4-methoxypiperidine-1-carbonyl)benzyl)phthalazin-1(2H)-one] | 11 |
| O=C(c1cc(Cc2n[nH]c(=O)c3ccccc23)ccn1)N1CCC(Oc2ccc(Cl)cc2)CC1 [Compound 6a] | 4 |
| COC1CCN(C(=O)c2cc(Cc3n[nH]c(=O)c4cccc(N)c34)ccc2F)CC1 [Compound 46, 5-amino-4-(4-fluoro-3-(4-methoxypiperidine-1-carbonyl)benzyl)phthalazin-1(2H)-one] | 11 |
| N#Cc1nccnc1OC1CCN(C(=O)c2cc(Cc3n[nH]c(=O)c4ccccc34)ccc2F)CC1 [Compound 26l] | 5 |
| N#CCc1ccc(OC2CCN(C(=O)c3cc(Cc4n[nH]c(=O)c5ccccc45)ccc3F)CC2)cc1 [Compound 8f, 2-[4-[1-[2-fluoro-5-[(4-oxo-3H-phthalazin-1-yl)methyl]benzoyl]piperidin-4-yl]oxyphenyl]acetonitrile] | 2 |
| COc1cccc(OC2CCN(C(=O)c3cc(Cc4n[nH]c(=O)c5ccccc45)ccc3F)CC2)c1 [Compound 8a, 4-[[4-fluoro-3-[4-(3-methoxyphenoxy)piperidine-1-carbonyl]phenyl]methyl]-2H-phthalazin-1-one] | 3 |
| O=C(c1cc(Cc2n[nH]c(=O)c3ccccc23)ccn1)N1CCC(Oc2ccccn2)CC1 [Compound 6f] | 8 |
| COC1(C)CCN(C(=O)c2cc(Cc3n[nH]c(=O)c4ccccc34)ccc2F)CC1 [Compound 24, 4-[[4-fluoro-3-(4-methoxy-4-methylpiperidine-1-carbonyl)phenyl]methyl]-2H-phthalazin-1-one] | 6 |
| O=C(c1cc(Cc2n[nH]c(=O)c3ccccc23)ccc1F)N1CCC2(CC1)OCc1ccccc12 [Compound 9, 4-(4-fluoro-3-(3H-spiro[isobenzofuran-1,4′-piperidine]-1′-ylcarbonyl)benzyl)phthalazin-1(2H)-one] | 7 |
| CC(C)(C)OC1CCN(C(=O)c2cc(Cc3n[nH]c(=O)c4ccccc34)ccc2F)CC1 [Compound 70, 4-(3-(4-tert-butoxypiperidine-1-carbonyl)-4-fluorobenzyl)phthalazin-1(2H)-one] | 6 |
| COC1CCN(C(=O)c2cc(Cc3n[nH]c(=O)c4ccc(Br)cc34)ccc2F)CC1 [Compound 98, 6-bromo-4-(4-fluoro-3-(4-methoxypiperidine-1-carbonyl)benzyl)phthalazin-1(2H)-one] | 135 |
| COc1ccnc(OC2CCN(C(=O)c3cc(Cc4n[nH]c(=O)c5ccccc45)ccc3F)CC2)c1 [Compound 26k] | 1 |
| COc1ccccc1OC1CCN(C(=O)c2cc(Cc3n[nH]c(=O)c4ccccc34)ccc2F)CC1 [Compound 8d, 4-[[4-fluoro-3-[4-(2-methoxyphenoxy)piperidine-1-carbonyl]phenyl]methyl]-2H-phthalazin-1-one] | 4 |
| O=C(c1cccc(Cc2n[nH]c(=O)c3ccccc23)c1)N1CCC(OC2CCCC2)CC1 [Compound 37, 4-(3-(4-(cyclopentyloxy)piperidine-1-carbonyl)benzyl)phthalazin-1(2H)-one] | 5 |
| COC1CCN(C(=O)c2cc(Cc3n[nH]c(=O)c4cc(Cl)c(Cl)cc34)ccc2F)CC1 [Compound 65, 6,7-dichloro-4-(4-fluoro-3-(4-methoxypiperidine-1-carbonyl)benzyl)phthalazin-1(2H)-one] | 40 |
| CCOC1CCN(C(=O)c2cc(Cc3n[nH]c(=O)c4c(C)[nH]c(C)c34)ccc2F)CC1 [Compound 54, 4-(3-(4-ethoxypiperidine-1-carbonyl)-4-fluorobenzyl)-5,7-dimethyl-2,6-dihydro-1H-pyrrolo[3,4-d]pyridazin-1-one] | 18 |
